This is one part of the list.
Key:
Assay in all cases: glycan array binding signal (z-score within array); higher = stronger binding
Details in all cases: glycan notation: IUPAC condensed, linker removed
Neu5Ac(a2-3)GalNAc = target: Neu5Ac(a2-3)GalNAc
Method in brief: (§1)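 Arrays were curated from the Consortium for Functional Glycomics database, 3228 in total, and kept only where the protein sequence was available. Binding is expressed as a within-array Z-score. This score was averaged across arrays of the same protein sequence at different concentrations or buffers and across linkers, and negative values can be read as non-binding.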

[1] = target: Neu5Ac(a2-3)GalNAc(b1-4)GlcNAc
Method in brief: as §1

[2] = target: Neu5Ac(a2-3)[GalNAc(b1-4)]Gal(b1-4)Glc
Method in brief: as §1

[3] = target: Neu5Ac(a2-3)[GalNAc(b1-4)]Gal(b1-4)GlcNAc
Method in brief: as §1

[4] = target: Neu5Ac(a2-3)[GalNAc(b1-4)]Gal(b1-4)GlcNAc(b1-3)GalNAc
Method in brief: as §1

[5] = target: Neu5Ac(a2-3)[Neu5Ac(a2-6)]GalNAc
Method in brief: as §1

Neu5Ac(a2-6)Gal = target: Neu5Ac(a2-6)Gal
Method in brief: as §1

[6] = target: Neu5Ac(a2-6)Gal(b1-3)GlcNAc(b1-3)[Gal(b1-4)GlcNAc(b1-6)]Gal(b1-4)Glc
Method in brief: as §1

Neu5Ac(a2-6)Gal(b1-4)Glc = target: Neu5Ac(a2-6)Gal(b1-4)Glc
Method in brief: as §1

[7] = target: Neu5Ac(a2-6)Gal(b1-4)GlcNAc
Method in brief: as §1

[8] = target: Neu5Ac(a2-6)Gal(b1-4)GlcNAc(b1-2)Man
Method in brief: as §1

[9] = target: Neu5Ac(a2-6)Gal(b1-4)GlcNAc(b1-2)Man(a1-3)Man(b1-4)GlcNAc(b1-4)GlcNAc
Method in brief: as §1

[10] = target: Neu5Ac(a2-6)Gal(b1-4)GlcNAc(b1-2)Man(a1-3)[Gal(b1-4)GlcNAc(b1-2)Man(a1-6)]Man(b1-4)GlcNAc(b1-4)GlcNAc
Method in brief: as §1

[11] = target: Neu5Ac(a2-6)Gal(b1-4)GlcNAc(b1-2)Man(a1-3)[GlcNAc(b1-2)Man(a1-6)]Man(b1-4)GlcNAc(b1-4)GlcNAc
Method in brief: as §1

[12] = target: Neu5Ac(a2-6)Gal(b1-4)GlcNAc(b1-2)Man(a1-3)[GlcNAc(b1-4)][Neu5Ac(a2-6)Gal(b1-4)GlcNAc(b1-2)Man(a1-6)]Man(b1-4)GlcNAc(b1-4)GlcNAc
Method in brief: as §1

[13] = target: Neu5Ac(a2-6)Gal(b1-4)GlcNAc(b1-2)Man(a1-3)[Man(a1-6)]Man(b1-4)GlcNAc(b1-4)GlcNAc
Method in brief: as §1

[14] = target: Neu5Ac(a2-6)Gal(b1-4)GlcNAc(b1-2)Man(a1-3)[Neu5Ac(a2-3)Gal(b1-4)GlcNAc(b1-2)Man(a1-6)]Man(b1-4)GlcNAc(b1-4)GlcNAc
Method in brief: as §1

[15] = target: Neu5Ac(a2-6)Gal(b1-4)GlcNAc(b1-2)Man(a1-3)[Neu5Ac(a2-6)Gal(b1-4)GlcNAc(b1-2)Man(a1-6)]Man(b1-4)GlcNAc(b1-4)GlcNAc
Method in brief: as §1

[16] = target: Neu5Ac(a2-6)Gal(b1-4)GlcNAc(b1-2)Man(a1-3)[Neu5Ac(a2-6)Gal(b1-4)GlcNAc(b1-2)Man(a1-6)]Man(b1-4)GlcNAc(b1-4)[Fuc(a1-6)]GlcNAc
Method in brief: as §1

[17] = target: Neu5Ac(a2-6)Gal(b1-4)GlcNAc(b1-2)Man(a1-6)Man(b1-4)GlcNAc(b1-4)GlcNAc
Method in brief: as §1

[18] = target: Neu5Ac(a2-6)Gal(b1-4)GlcNAc(b1-2)Man(a1-6)[Gal(b1-4)GlcNAc(b1-2)Man(a1-3)]Man(b1-4)GlcNAc(b1-4)GlcNAc
Method in brief: as §1

[19] = target: Neu5Ac(a2-6)Gal(b1-4)GlcNAc(b1-2)Man(a1-6)[GlcNAc(b1-2)Man(a1-3)]Man(b1-4)GlcNAc(b1-4)GlcNAc
Method in brief: as §1

[20] = target: Neu5Ac(a2-6)Gal(b1-4)GlcNAc(b1-2)Man(a1-6)[Man(a1-3)]Man(b1-4)GlcNAc(b1-4)GlcNAc
Method in brief: as §1

[21] = target: Neu5Ac(a2-6)Gal(b1-4)GlcNAc(b1-2)[Neu5Ac(a2-6)Gal(b1-4)GlcNAc(b1-4)]Man(a1-3)[GlcNAc(b1-4)][Neu5Ac(a2-6)Gal(b1-4)GlcNAc(b1-2)[Neu5Ac(a2-6)Gal(b1-4)GlcNAc(b1-6)]Man(a1-6)]Man(b1-4)GlcNAc(b1-4)GlcNAc
Method in brief: as §1

[22] = target: Neu5Ac(a2-6)Gal(b1-4)GlcNAc(b1-2)[Neu5Ac(a2-6)Gal(b1-4)GlcNAc(b1-4)]Man(a1-3)[GlcNAc(b1-4)][Neu5Ac(a2-6)Gal(b1-4)GlcNAc(b1-4)Man(a1-6)]Man(b1-4)GlcNAc(b1-4)GlcNAc
Method in brief: as §1

[23] = target: Neu5Ac(a2-6)Gal(b1-4)GlcNAc(b1-2)[Neu5Ac(a2-6)Gal(b1-4)GlcNAc(b1-6)]Man(a1-6)[Neu5Ac(a2-6)Gal(b1-4)GlcNAc(b1-2)Man(a1-3)][GlcNAc(b1-4)]Man(b1-4)GlcNAc(b1-4)GlcNAc
Method in brief: as §1

[24] = target: Neu5Ac(a2-6)Gal(b1-4)GlcNAc(b1-3)Gal(b1-3)GlcNAc
Method in brief: as §1

[25] = target: Neu5Ac(a2-6)Gal(b1-4)GlcNAc(b1-3)Gal(b1-4)GlcNAc
Method in brief: as §1

[26] = target: Neu5Ac(a2-6)Gal(b1-4)GlcNAc(b1-3)Gal(b1-4)GlcNAc(b1-2)Man(a1-3)[Neu5Ac(a2-6)Gal(b1-4)GlcNAc(b1-3)Gal(b1-4)GlcNAc(b1-2)Man(a1-6)]GalNAc
Method in brief: as §1

[27] = target: Neu5Ac(a2-6)Gal(b1-4)GlcNAc(b1-3)Gal(b1-4)GlcNAc(b1-3)Gal(b1-4)GlcNAc
Method in brief: as §1

[28] = target: Neu5Ac(a2-6)Gal(b1-4)GlcNAc(b1-3)Gal(b1-4)GlcNAc(b1-3)Gal(b1-4)GlcNAc(b1-2)Man(a1-3)[Neu5Ac(a2-6)Gal(b1-4)GlcNAc(b1-3)Gal(b1-4)GlcNAc(b1-3)Gal(b1-4)GlcNAc(b1-2)Man(a1-6)]GalNAc
Method in brief: as §1

[29] = target: Neu5Ac(a2-6)Gal(b1-4)GlcNAc(b1-3)Gal(b1-4)GlcNAc(b1-3)GalNAc
Method in brief: as §1

[30] = target: Neu5Ac(a2-6)Gal(b1-4)GlcNAc(b1-3)Gal(b1-4)GlcNAc(b1-3)[Neu5Ac(a2-6)Gal(b1-4)GlcNAc(b1-3)Gal(b1-4)GlcNAc(b1-6)]GalNAc
Method in brief: as §1

[31] = target: Neu5Ac(a2-6)Gal(b1-4)GlcNAc(b1-3)Gal(b1-4)GlcNAc(b1-6)[Gal(b1-3)]GalNAc
Method in brief: as §1

[32] = target: Neu5Ac(a2-6)Gal(b1-4)GlcNAc(b1-3)Gal(b1-4)[Fuc(a1-3)]GlcNAc(b1-3)Gal(b1-4)[Fuc(a1-3)]GlcNAc
Method in brief: as §1

[33] = target: Neu5Ac(a2-6)Gal(b1-4)GlcNAc(b1-3)GalNAc
Method in brief: as §1

[34] = target: Neu5Ac(a2-6)Gal(b1-4)GlcNAc(b1-3)[Neu5Ac(a2-6)Gal(b1-4)GlcNAc(b1-6)]GalNAc
Method in brief: as §1

B1: Cohesin-hDC-ASGPR (Homo sapiens) (protein)
chain: LDDLDAVRIKVDTVNAKPGDTVRIPVRFSGIPSKGIANCDFVYSYDPNVLEIIEIEPGDIIVDPNPDKSFDTAVYPDRKIIVFLFAEDSGTGAYAITKDGVFATIVAKVKEGAPNGLSVIKFVEVGGFANNDLVEQKTQFFDGGANVGDTTEPATPTTPVTTPTTTDDLDAASQNSKFQRDLVTLRTDFSNFTSNTVAEIQALTSQGSSLEETIASLKAEVEGFKQERQAGVSELQEHTTQKAHLGHCPHCPSVCVPVHSEMLLRVQQLVQDLKKLTCQVATLNNNASTEGTCCPVNWVEHQDSCYWFSHSGMSWAEAEKYCQLKNAHLVVINSREEQNFVQKYLGSAYTWMGLSDPEGAWKWVDGTDYATGFQNWKPGQPDDWQGHGLGGGEDCAHFHPDGRWNDDVCQRPYHWVCEAGLGQTSQESHHHHHH
glycan array binding signal (z-score) (Neu5Ac(a2-3)GalNAc): -0.494 | glycan array binding signal (z-score) [1]: -0.511 | glycan array binding signal (z-score) [2]: 2.91 | glycan array binding signal (z-score) [3]: 2.55 | glycan array binding signal (z-score) [4]: 1.83 | glycan array binding signal (z-score) [5]: -0.297 | glycan array binding signal (z-score) (Neu5Ac(a2-6)Gal): -0.515 | glycan array binding signal (z-score) [6]: -0.51 | glycan array binding signal (z-score) (Neu5Ac(a2-6)Gal(b1-4)Glc): -0.501 | glycan array binding signal (z-score) [7]: -0.421 | glycan array binding signal (z-score) [8]: -0.304 | glycan array binding signal (z-score) [9]: -0.509 | glycan array binding signal (z-score) [10]: -0.498 | glycan array binding signal (z-score) [11]: -0.519 | glycan array binding signal (z-score) [12]: -0.511 | glycan array binding signal (z-score) [13]: -0.519 | glycan array binding signal (z-score) [14]: -0.471 | glycan array binding signal (z-score) [15]: -0.469 | glycan array binding signal (z-score) [16]: -0.509 | glycan array binding signal (z-score) [17]: -0.524 | glycan array binding signal (z-score) [18]: -0.511 | glycan array binding signal (z-score) [19]: -0.387 | glycan array binding signal (z-score) [20]: -0.519 | glycan array binding signal (z-score) [21]: -0.485 | glycan array binding signal (z-score) [22]: -0.498 | glycan array binding signal (z-score) [23]: -0.505 | glycan array binding signal (z-score) [24]: -0.422 | glycan array binding signal (z-score) [25]: -0.5 | glycan array binding signal (z-score) [26]: 0.021 | glycan array binding signal (z-score) [27]: -0.502 | glycan array binding signal (z-score) [28]: 0.226 | glycan array binding signal (z-score) [29]: -0.493 | glycan array binding signal (z-score) [30]: -0.157 | glycan array binding signal (z-score) [31]: -0.49 | glycan array binding signal (z-score) [32]: -0.458 | glycan array binding signal (z-score) [33]: 1.91 | glycan array binding signal (z-score) [34]: -0.436
